Test results as given in PubChem BioAssay AID1345083 (National Center for Advancing Translational Sciences (NCATS), 2018).
The whole screen tested about 94,000 compounds, of which about 6,200 (6.6%) were called active. Inconclusive results, whose numbers are uncertain, are shown with a selection of clear calls. Calls follow the shape of the dose curve; as a rule, active = well fitted inhibition curve with a large enough effect; inconclusive = small, poorly fitted or top-dose-only effect; inactive = flat fitted curve, though single readings scatter. Potencies beside an inconclusive call are fits to weak or partial responses and may not hold up.

Experiment: Cytotoxic Profiling in HEK 293 Cell Line of Diverse Libraries Using Quantitative High-Throughput Screening; also: nearly all actives have a fitted effect of over 60% in size
Details: HEK 293 viability, ATP luminescence (CellTiter-Glo), 48-72 h; series mostly up to 115 µM
Outline: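 HEK 293 cells seeded at 250 cells/well were exposed to compound for 48 or 72 hr at 37 degree Celsius. Viability taken as ATP content by CellTiter-Glo luminescence.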
Potency is read from the fitted curve at half-maximal effect; tags tell the direction and shape of the fitted curve.

SMILES | Potency
Fc1ccc(OC2CN(Cc3cccc4ccccc34)C2)cc1F | inconclusive: 50.1 µM [inhibitor, partial curve, poor fit]
COc1ccc(-c2ccc3nnc(CNC(=O)c4ccc(C)c(C)c4)n3n2)cc1 | inconclusive: 89.1 µM [inhibitor, single point]
COc1cc(CN2CCN(c3ccc(C#N)cn3)CC2CCO)cc(OC)c1 (stereo unspecified) | inconclusive: 63.1 µM [inhibitor, partial curve, poor fit]
Cc1cccc(OCC(=O)c2ccc3c(c2)N(C(C)C(=O)N2CCOCC2)C(=O)CO3)c1C (stereo unspecified) | inconclusive: 79.4 µM [inhibitor, partial curve, poor fit]
Cc1cc(COc2ccccc2)oc1C(=O)N1CCn2nc(C(C)O)cc2C1 (stereo unspecified) | inactive
COCCNC(=O)c1cc(-c2ccsc2)nc2c1cnn2C | inactive
c1cncc(CNC[C@H]2Cn3c(-c4ccc5c(c4)OCCO5)cnc3CO2)c1 | inactive
CC1=C[C@@H](CN(C)CCO)[C@H](C(C)C)C[C@H]1Cc1nnc(-c2ccccc2F)o1 | inconclusive: 100 µM [inhibitor, partial curve]
O=C(Cc1cccc(Cl)c1)NC1CCN(c2ccc3nnc(C4CC4)n3n2)C1 (stereo unspecified) | inconclusive: 89.1 µM [inhibitor, single point]
CC(C)(Oc1nn(Cc2cccc(Cl)c2)c2ccccc12)C(=O)NCCCN1CCCC1=O | inconclusive: 50.1 µM [inhibitor, partial curve]
CCN1c2cc(C(=O)NCc3ccc(OC)cc3OC)ccc2C(=O)N2CCCCCC21 (stereo unspecified) | inconclusive: 89.1 µM [inhibitor, single point]
O=S(=O)(c1cccnc1)N1CCC2(CC1)NCCc1c2[nH]c2ccccc12 | inconclusive: 10 µM [inhibitor, full curve, poor fit]
Cn1nccc1-c1ccc2ncn(Cc3ccccn3)c(=O)c2n1 | inactive
Oc1ccccc1CN1CCOC[C@H]1c1ncc(-c2ccc(F)cc2)[nH]1 | inconclusive: 89.1 µM [inhibitor, partial curve]
c1cc(-c2cc(-c3ccc4cn[nH]c4c3)cn3cncc23)ccn1 | active: 63.1 µM
COc1ncccc1-c1cnc2[nH]cc(CC(=O)Nc3ccccc3)c2c1 | inconclusive: 8.91 µM [inhibitor, full curve, poor fit]
O=C(CCC1CCCN(S(=O)(=O)c2ccc(F)cc2)C1)NCc1ccccc1 (stereo unspecified) | inconclusive: 100 µM [inhibitor, single point]
Cc1cccc(NC(=O)N2CC(Oc3ccccc3-c3noc(C)n3)C2)c1 | inactive
Cc1nc(-c2ccc(OC3CCN(C(=O)c4cc(C)n(C)n4)C3)cc2)no1 (stereo unspecified) | inconclusive: 31.6 µM [inhibitor, full curve]
Cc1nn(-c2ccccc2)c2c1C(C1CC1)N(C1CN(C(=O)c3ccccn3)C1)C2=O (stereo unspecified) | inconclusive: 50.1 µM [inhibitor, partial curve, poor fit]
CC1=NS(=O)(=O)N(Cc2ccccc2)C=C1C(=O)OCC1CC1 | inconclusive: 44.7 µM [inhibitor, partial curve]

SMILES | Potency
COc1cc(=O)n2c(c1C(=O)Nc1ccc3c(c1)OCCO3)CCCC2 | inconclusive: 89.1 µM [inhibitor, single point]
Cc1cnc(CC2CCCN(C(=O)NCC(C)C)C2)n1Cc1ccc(F)cc1 (stereo unspecified) | inactive
COc1ccc(CN2CCc3oc(C)c(C(=O)N4CCN(c5ncccn5)CC4)c3C2)cc1 | inconclusive: 100 µM [inhibitor, partial curve, poor fit]
Cc1ccccc1CC(=O)N1CCC(n2cc(-c3nc(-c4ccccc4)no3)nn2)CC1 | inactive
CC(C(=O)N1CCC2(CC1)N(Cc1ccccc1)C(=O)CS2(=O)=O)c1ccccc1 (stereo unspecified) | inactive
COC(C)c1cccc(-c2cc(NC3CC3)nc(N)n2)c1 (stereo unspecified) | inconclusive: 79.4 µM [inhibitor, partial curve, poor fit]
COc1cccc(-c2cc(-c3ccc(OC)nc3)c3cncn3c2)c1 | inconclusive: 56.2 µM [inhibitor, partial curve, poor fit]
COc1ccccc1Nc1ccnc(N2CCCC(C(=O)NC(C)C)C2)n1 (stereo unspecified) | inconclusive: 44.7 µM [inhibitor, partial curve, poor fit]
O=C(NCc1ccc(F)c(F)c1)c1ccc2nc(-c3cccnc3)oc2c1 | inconclusive: 50.1 µM [inhibitor, full curve]
Cc1nc(C2CC2)ncc1C(=O)N1CCC2(CC1)OCCCC2O (stereo unspecified) | inactive
COc1ccc(C(=O)NC[C@H]2O[C@@H](CO)[C@@H](O)[C@H]2N2CCc3ccccc3C2)cc1 | inactive
O=C(c1cc(F)ccc1F)N1CCC(OCCOc2ccc(F)cc2)CC1 | inconclusive: 50.1 µM [inhibitor, partial curve, poor fit]
Nc1nc(C2CC(O)C2)cc(N2CCc3sccc3C2)n1 (stereo unspecified) | inconclusive: 17.8 µM [inhibitor, full curve]
CC1(C(=O)NCCc2ccccn2)COCc2cnc(Nc3ccccc3)nc21 (stereo unspecified) | inconclusive: 100 µM [inhibitor, partial curve, poor fit]
CN(C(=O)Cc1ccccn1)C1CCCc2ccccc21 (stereo unspecified) | inconclusive: 70.8 µM [inhibitor, partial curve]
O=c1c2c3c(nn2ccn1Cc1ccc(Cl)cc1)CCCC3 | inconclusive: 44.7 µM [inhibitor, partial curve, poor fit]
C=CCOc1c(OC)ccc2c1CN(CCOC)C(=O)CCN2CC(O)Cc1ccccc1 (stereo unspecified) | inconclusive: 89.1 µM [inhibitor, single point]
COc1cc(OC)cc(C(=O)N2CCC3(C2)NC(=O)N(Cc2ccc(Cl)cc2)C3=O)c1 (stereo unspecified) | inconclusive: 50.1 µM [inhibitor, partial curve, poor fit]
CCc1cc(=O)n(CC(=O)Nc2ccc(C(F)(F)F)cc2)c(N2CCOCC2)n1 | inconclusive: 50.1 µM [inhibitor, partial curve, poor fit]
COc1cccc(CN2CCCC3(CCN(Cc4ccccc4)C3)C2=O)c1OC (stereo unspecified) | inconclusive: 39.8 µM [inhibitor, full curve, poor fit]
